Data from PubChem BioAssay AID504706 (National Center for Advancing Translational Sciences (NCATS), 2011).
Screen size: about 320,000 compounds; about 200 (0.062%) were called active. Inconclusive means that the source gave no clear call. Such entries were picked first, then a sample of the others. Calls follow the shape of the dose curve; as a rule, active = well fitted activation curve with a large enough effect; inconclusive = small, poorly fitted or top-dose-only effect; inactive = no such curve, though single readings can be large or run the other way. No potency is given beside an inconclusive call; the fits are too rough.

Assay: qHTS assay for re-activators of p53 using a Luc reporter; also: nearly all actives have a fitted effect of over 45% in size; as to activity change, positive = activation: % of control where 0% means no effect
Details: H1299 p53-A138V BP100-luciferase reporter, luminescence, 24 h; series mostly up to 92.2 µM; activity change, positive = activation: at the top concentration
Summary of the method: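 H1299 (p53-null), stable ts p53-A138V + BP100-Luc; 1000 cells/well, Opti-MEM/10% FBS; cpd 4 pt, 1:5; 24 h, 37 deg C, 5% CO2; detection reagent 10 min RT; luminescence.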
Potency is read from the fitted curve at half-maximal effect; tags tell the direction and shape of the fitted curve.

Compound	Potency	activity change, positive = activation
Oc1ccc(/C=N/Nc2ncc(Br)cn2)c(O)c1	inconclusive [activator, partial curve, poor fit]	–
O=C(NNC(=O)c1ccccc1C(=O)O)c1ccc(-c2ccccc2)cc1	–	inactive: -1.81%
Cc1csc2nc3ccccc3c(=O)n12	inconclusive [activator, full curve, poor fit]	–
C/C(=N\NC(=O)c1nn(C)c(C)c1Br)c1ccc(NC(=O)c2ccoc2C)cc1	inconclusive [activator, partial curve, poor fit]	–
O=C(Cc1noc2ccccc12)Nc1ccccn1	inconclusive [activator, partial curve, poor fit]	–
Cc1cccc(-c2noc(CCC(=O)NC3CCCCC3)n2)c1	inconclusive [activator, single point]	–
CSC1=NC(C)(C)C=C(/C=C/c2ccc(Cl)cc2)N1	inconclusive [activator, single point]	–
COc1cccc(OC(=O)c2cc3ccccc3oc2=O)c1	–	inactive: 7.93%
CCC1(C)NC(=O)N(/N=C/c2ccc(C)s2)C1=O (stereo not drawn)	inconclusive [activator, full curve, poor fit]	–
OCC1(Cc2ccccc2)CCCN(Cc2c[nH]c3ccccc23)C1 (stereo not drawn)	–	inactive: -3.69%
Cc1ccccc1N1CCN(C2CCCN(C(=O)CCC(=O)N(C)C)C2)CC1 (stereo not drawn)	inconclusive [activator, single point]	–
O=C(CCCN1C(=O)/C(=C\c2ccccc2)SC1=S)N1CCOCC1	inconclusive [activator, partial curve, poor fit]	–
CSc1ncc(Cl)c(C(=O)Nc2ccc(S(=O)(=O)Nc3nccc(C)n3)cc2)n1	inconclusive [activator, partial curve, poor fit]	–
Nc1nc2c(s1)CCc1c-2cnn1-c1ccccc1	–	inactive: -36.6%
COc1ccc(S(=O)(=O)n2nc(OC(=O)c3ccccc3)cc2N)cc1	inconclusive [activator, single point]	–
O=C(NCc1ccccc1)c1cccc(COc2ccccc2Cl)c1	inconclusive [activator, full curve, poor fit]	–
Cn1c(Sc2nc3ccccc3n2C)nc2ccccc21	inconclusive [activator, full curve, poor fit]	–
O=C(NCc1ccccc1CN1CCCC1)c1cc2ccccc2o1	inconclusive [activator, partial curve, poor fit]	–
C#CCSc1nncn1C(=O)/C=C/c1ccccc1	–	inactive: -0.338%
CCCCc1ccc(NC(=O)c2cnccn2)cc1	inconclusive [activator, partial curve, poor fit]	–
COc1ccc(C(=O)COC(=O)c2cccs2)cc1	inconclusive [activator, partial curve, poor fit]	–
O=C1c2ccccc2CCC1C(O)c1ccccn1 (stereo not drawn)	inconclusive [activator, single point]	–
N#C/C(C(=O)N1CCCCC1)=C1\Nc2ccccc2S1	inconclusive [activator, full curve, poor fit]	–

Compound	Potency	activity change, positive = activation
O=C(NCc1cccnc1)c1cc(-c2ccco2)on1	inconclusive [activator, partial curve, poor fit]	–
COc1cc(C)ccc1OCCCOc1ccccc1Cl	inconclusive [activator, partial curve, poor fit]	–
COc1cc2nc(CN(CCC(C)C)Cc3nc4cc(OC)c(OC)cc4c(=O)[nH]3)[nH]c(=O)c2cc1OC	–	inactive: -1.74%
CC1(C)O[C@@H]2[C@H](O1)[C@@H](COS(=O)(=O)O)O[C@H]2n1c(=S)[nH]c2c(=O)[nH]c(N)nc21	inconclusive [activator, full curve, poor fit]	–
CC(C)C(NC(=O)/C(=C\c1ccco1)NC(=O)c1ccco1)C(=O)O (stereo not drawn)	inconclusive [activator, single point]	–
CC(C)c1ccc(OCC(=O)NCCO)cc1	inconclusive [activator, full curve]	–
CC1CCC(NC(=O)c2ccc(N3CCCC3=O)cc2)CC1 (stereo not drawn)	inconclusive [activator, partial curve, poor fit]	–
Cc1cc(C(=O)N/N=C/c2cccc([N+](=O)[O-])c2)c(C)n1-c1ccccc1	inconclusive [activator, partial curve, poor fit]	–
Cc1ccc(S(=O)(=O)CC(=O)c2ccc3c(c2)OCCO3)cc1	inconclusive [activator, partial curve, poor fit]	–
Cc1ccc(NC(=S)Nc2ccc(Cl)c(Cl)c2)c(OC(F)F)c1	–	inactive: 10.9%
CCc1nc(SCc2ccc(OC)cc2)n[nH]1	inconclusive [activator, partial curve, poor fit]	–
NS(=O)(=O)c1ccc2nc(NC(=O)Nc3ccc(F)cc3)sc2c1	inconclusive [activator, full curve, poor fit]	–
COc1cc(NC(=O)/C=C/c2ccccc2[N+](=O)[O-])cc(OC)c1	inconclusive [activator, partial curve, poor fit]	–
C/C(Cl)=C\Cn1c(O)c(N=NC(N)=S)c2ccccc21	–	inactive: 3.8%
CCCCOc1ccc(C(=O)N/C(=C/C=C/c2ccccc2)C(=O)O)cc1	–	inactive: -3.4%
CC(Oc1ccc(Br)cc1)C(=O)NC1CCCCCC1 (stereo not drawn)	inconclusive [activator, partial curve, poor fit]	–
COc1ccc(NC(=O)NN2CCN(C)CC2)cc1OC	inconclusive [activator, partial curve, poor fit]	–
O=C(Nc1nnc(CCc2ccccc2)s1)c1ccco1	inconclusive [activator, partial curve, poor fit]	–
O=C(CCc1ccccc1)NNC(=O)Nc1ccccc1	–	inactive: -1.09%
COc1ccc(-c2cc(C(=O)NN)[nH]n2)cc1	inconclusive [activator, full curve, poor fit]	–
Cc1cccc(NC(=O)c2nc[nH]c2C(=O)N2CCN(C(=O)OC(C)(C)C)CC2)c1	–	inactive: -16%
CC(CC(=O)c1cccs1)CC(=O)c1cccs1	inconclusive [activator, single point]	–
CCC(=O)c1ccc(N2CCCC2)c(F)c1	inconclusive [activator, partial curve]	–

Compound	Potency	activity change, positive = activation
COc1ccc(/C=N/N=C2/NC(=O)CC(C(=O)O)S2)cc1 (stereo not drawn)	inconclusive [activator, partial curve, poor fit]	–
CC(=O)OC[C@H]1O[C@@H](Sc2cccc3cccnc23)[C@H](OC(C)=O)[C@@H](OC(C)=O)[C@H]1OC(C)=O	–	inactive: 13.3%
CSc1cccc(NC(=O)c2cccc3cccnc23)c1	inconclusive [activator, partial curve, poor fit]	–
O=C(Nc1ccc(C(=O)N2CCOCC2)cc1)c1ccccc1[N+](=O)[O-]	inconclusive [activator, single point]	–
COc1ccc(NC(=O)CSCC(=O)N2c3ccccc3CCc3ccccc32)cc1	–	inactive: 5.93%
O=c1c(-c2ccc(Cl)cc2)[n+]([O-])c2ccccc2n1OCc1ccccn1	–	inactive: -0.397%
Cc1ccccc1-c1cc(-c2ccccc2O)on1	inconclusive [activator, full curve]	–
O=C(NC(=S)Nc1cccc(Cl)c1Cl)C1CC1	inconclusive [activator, partial curve]	–
CCOC(=O)c1c(NC(=O)C2=C(C)NC(=S)NC2c2ccc(C)cc2)sc(C)c1C (stereo not drawn)	–	inactive: -1.48%
Cc1cc(C(=O)COC(=O)/C=C/c2ccco2)c(C)n1C	inconclusive [activator, partial curve, poor fit]	–
CCC(=O)Nc1cccc(NC(=S)NC(=O)c2ccc(Cl)cc2)c1	inconclusive [activator, partial curve, poor fit]	–
CNC(=S)N/N=C/c1cc(Br)cc(Br)c1O	inconclusive [activator, partial curve, poor fit]	–
CC(=O)c1cn(CC(=O)Nc2cccc(C)c2C)c2ccccc12	–	inactive: -2.42%
Cc1ccccc1CSCCNC(=O)CCSc1ccccc1	–	inactive: 1.74%
N#Cc1ccc(C(=O)Nc2nc3ccccc3[nH]2)cc1	inconclusive [activator, partial curve, poor fit]	–
CCC(=O)Nc1ccc2c(c1)C(=O)c1ccccc1C2=O	inconclusive [activator, partial curve, poor fit]	–
CN(c1ccccc1)S(=O)(=O)c1ccc(Cl)c(C(=O)Nc2ccncc2)c1	–	inactive: 5.82%
COc1ccc(C(=O)N/N=C(/C)c2cccc(NC(=O)C(F)(F)F)c2)cc1	inconclusive [activator, partial curve, poor fit]	–
COc1ccc2c(n1)Sc1nc3ccccc3nc1N2	inconclusive [activator, full curve, poor fit]	–
Cc1ccnc(SCc2cc(=O)c(OC(=O)c3ccc(Cl)c([N+](=O)[O-])c3)co2)n1	–	inactive: -5.12%
Cc1nn(C)c(C)c1C(C)NC(=O)c1ccc(OC2CCN(Cc3ccccn3)CC2)cc1 (stereo not drawn)	inconclusive [activator, single point]	–
Nc1c(N(CCC2=CCCCC2)C(=O)CCCOc2ccccc2)c(=O)[nH]c(=O)n1Cc1ccccc1	–	inactive: 0.721%
